# Source: the supplement of paper PMC10037445
# Whole data set: some 2,900 compounds, median “NF-kB SEAP reporter activity, fold change vs agonist alone” near 0.99, cut for the highest 2% near 2.6. The list shows a part of the results.
# Columns and labels:
# [1] = tested on: RAW-Dual; assay: NF-kB SEAP reporter activity, fold change vs agonist alone; cytotoxicity flag (confluency mask): not cytotoxic; higher = enhanced NF-kB activity
# Summary of the method: (§1)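 Library stock was pin-tooled at 50 nL into 384-well plates of RAW-Dual macrophages (50,000 cells/well, DMEM), followed 1 h later by a PRR agonist, and the cells were kept at 37 °C, 5% CO2. Supernatant collected after 20 hours was read for IRF by QuantiLuc luminescence and for NF-κB by QuantiBlue absorbance at 620 nm. Reporter activity is fold change over agonist-alone wells, and a well counted as cytotoxic when its IncuCyte confluency was below 70% of agonist controls in both mask sets.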
# [2] = tested on: RAW-Dual; assay: NF-kB SEAP reporter activity, fold change vs agonist alone; higher = enhanced NF-kB activity; details: cytotoxicity flag (confluency mask): not cytotoxic
# Summary of the method: as §1
# [3] = agonist: ODN 1826 (TLR9) 0.5 ug/mL
# [4] = agonist: Pam2CSK4 (TLR2/6) 0.1 ug/mL
# [5] = agonist: Pam3CSK4 (TLR2/1) 0.1 ug/mL
# [6] = library stock concentration (final ~1000-fold dilution): 10 mM, agonist: MPLA (TLR4) […]
# [7] = library stock concentration (final ~1000-fold dilution): 10 mM, agonist: Imiquimod (TLR7) […]
compound,measurement,setting,value
O=c1c2ccccc2[se]n1-c1ccccc1 (library stock concentration (final ~1000-fold dilution): 10 mM),NF-kB SEAP reporter activity,[1]; agonist: LPS (TLR4) 0.1 ug/mL,0.445
same,NF-kB SEAP reporter activity,[1]; [3],0.277
same,NF-kB SEAP reporter activity,[1]; [4],0.249
same,NF-kB SEAP reporter activity,[1]; [5],0.46
CCNc1nc(Cl)nc(NC(C)C)n1,NF-kB SEAP reporter activity,[2]; [6],1.29
CCNc1nc(Cl)nc(NC(C)C)n1 (library stock concentration (final ~1000-fold dilution): 10 mM),NF-kB SEAP reporter activity,[1]; agonist: LPS (TLR4) 0.1 ug/mL,1.55
same,NF-kB SEAP reporter activity,[1]; [3],1.4
same,NF-kB SEAP reporter activity,[1]; [4],1.5
same,NF-kB SEAP reporter activity,[1]; [5],1.67
CCNC(=O)CC1N=C(c2ccc(Cl)cc2)c2cc(OC)ccc2-n2c(C)nnc21 (centres undefined),NF-kB SEAP reporter activity,[2]; [7],1.41
same,NF-kB SEAP reporter activity,[2]; [6],2.47
CCNC(=O)CC1N=C(c2ccc(Cl)cc2)c2cc(OC)ccc2-n2c(C)nnc21 (centres undefined) (library stock concentration (final ~1000-fold dilution): 10 mM),NF-kB SEAP reporter activity,[1]; agonist: LPS (TLR4) 0.1 ug/mL,2.57
same,NF-kB SEAP reporter activity,[1]; [3],1.9
same,NF-kB SEAP reporter activity,[1]; [4],0.886
same,NF-kB SEAP reporter activity,[1]; [5],1.43
O=C(O)C(=O)CBr,NF-kB SEAP reporter activity,[2]; [6],1.06
O=C(O)C(=O)CBr (library stock concentration (final ~1000-fold dilution): 10 mM),NF-kB SEAP reporter activity,[1]; agonist: LPS (TLR4) 0.1 ug/mL,0.991
same,NF-kB SEAP reporter activity,[1]; [3],0.962
same,NF-kB SEAP reporter activity,[1]; [4],1.07
same,NF-kB SEAP reporter activity,[1]; [5],1.06
Cl[Te]1(Cl)(Cl)OCCO1.N (library stock concentration (final ~1000-fold dilution): 10 mM),NF-kB SEAP reporter activity,[1]; agonist: LPS (TLR4) 0.1 ug/mL,1.39
same,NF-kB SEAP reporter activity,[1]; [3],0.846
same,NF-kB SEAP reporter activity,[1]; [4],0.912
same,NF-kB SEAP reporter activity,[1]; [5],1.28
Cl[Te]1(Cl)(Cl)OCCO1.N,NF-kB SEAP reporter activity,[2]; [7],0.792
same,NF-kB SEAP reporter activity,[2]; [6],0.899
CN1C2CCC1CC(OC(=O)C(CO)c1ccccc1)C2.CN1C2CCC1CC(OC(=O)C(CO)c1ccccc1)C2.O=S(=O)(O)O (centres undefined),NF-kB SEAP reporter activity,[2]; [6],1.05
CN1C2CCC1CC(OC(=O)C(CO)c1ccccc1)C2.CN1C2CCC1CC(OC(=O)C(CO)c1ccccc1)C2.O=S(=O)(O)O (centres undefined) (library stock concentration (final ~1000-fold dilution): 10 mM),NF-kB SEAP reporter activity,[1]; agonist: LPS (TLR4) 0.1 ug/mL,0.97
same,NF-kB SEAP reporter activity,[1]; [3],0.888
same,NF-kB SEAP reporter activity,[1]; [4],1.02
same,NF-kB SEAP reporter activity,[1]; [5],0.925
Cn1cc(C2=C(c3cn(C4CCN(Cc5ccccn5)CC4)c4ccccc34)C(=O)NC2=O)c2ccccc21,NF-kB SEAP reporter activity,[2]; [7],1.35
same,NF-kB SEAP reporter activity,[2]; [6],1.27
Cn1cc(C2=C(c3cn(C4CCN(Cc5ccccn5)CC4)c4ccccc34)C(=O)NC2=O)c2ccccc21 (library stock concentration (final ~1000-fold dilution): 10 mM),NF-kB SEAP reporter activity,[1]; agonist: LPS (TLR4) 0.1 ug/mL,1.92
same,NF-kB SEAP reporter activity,[1]; [3],1.37
same,NF-kB SEAP reporter activity,[1]; [4],1.48
same,NF-kB SEAP reporter activity,[1]; [5],1.96
CNC1CC(N)C(O)C(OC2OC(CO)C(O)C3OC4(OC(C(N)CO)C(O)C(O)C4O)OC23)C1O (centres undefined),NF-kB SEAP reporter activity,"[2]; library stock concentration (final ~1000-fold dilution): 10 mM water, agonist: Imiquimod (TLR7) […]",1.05
same,NF-kB SEAP reporter activity,"[2]; library stock concentration (final ~1000-fold dilution): 10 mM water, agonist: MPLA (TLR4) […]",1.13
CNC1CC(N)C(O)C(OC2OC(CO)C(O)C3OC4(OC(C(N)CO)C(O)C(O)C4O)OC23)C1O (centres undefined) (library stock concentration (final ~1000-fold dilution): 10 mM water),NF-kB SEAP reporter activity,[1]; agonist: LPS (TLR4) 0.1 ug/mL,1.28
same,NF-kB SEAP reporter activity,[1]; [3],1.28
same,NF-kB SEAP reporter activity,[1]; [4],1.64
same,NF-kB SEAP reporter activity,[1]; [5],1.38
CCN(C)C(=O)Oc1cccc(C(C)N(C)C)c1.O=C(O)C(O)C(O)C(=O)O (centres undefined) (library stock concentration (final ~1000-fold dilution): 10 mM),NF-kB SEAP reporter activity,[1]; agonist: LPS (TLR4) 0.1 ug/mL,0.953
same,NF-kB SEAP reporter activity,[1]; [3],0.949
same,NF-kB SEAP reporter activity,[1]; [4],0.951
same,NF-kB SEAP reporter activity,[1]; [5],1.08
CCN(C)C(=O)Oc1cccc(C(C)N(C)C)c1.O=C(O)C(O)C(O)C(=O)O (centres undefined),NF-kB SEAP reporter activity,[2]; [7],0.909
same,NF-kB SEAP reporter activity,[2]; [6],0.959
